Laboratory results as given in article PMC4336329 (PLoS ONE, 2015).
In all, about 310,000 compounds went through this assay and about 2,200 (0.71%) showed an effect of 50% or more. Effects have a minus sign here. This is one part of the list.

Each compound was assayed against human ether-à-go-go-related gene (hERG) potassium channel (human, UniProt Q12809) (assay: primary screen, population patch clamp on CHO cells stably expressing hERG).
human ether-à-go-go-related gene (hERG) potassium channel, sequence (Q12809 whole entry, looked up): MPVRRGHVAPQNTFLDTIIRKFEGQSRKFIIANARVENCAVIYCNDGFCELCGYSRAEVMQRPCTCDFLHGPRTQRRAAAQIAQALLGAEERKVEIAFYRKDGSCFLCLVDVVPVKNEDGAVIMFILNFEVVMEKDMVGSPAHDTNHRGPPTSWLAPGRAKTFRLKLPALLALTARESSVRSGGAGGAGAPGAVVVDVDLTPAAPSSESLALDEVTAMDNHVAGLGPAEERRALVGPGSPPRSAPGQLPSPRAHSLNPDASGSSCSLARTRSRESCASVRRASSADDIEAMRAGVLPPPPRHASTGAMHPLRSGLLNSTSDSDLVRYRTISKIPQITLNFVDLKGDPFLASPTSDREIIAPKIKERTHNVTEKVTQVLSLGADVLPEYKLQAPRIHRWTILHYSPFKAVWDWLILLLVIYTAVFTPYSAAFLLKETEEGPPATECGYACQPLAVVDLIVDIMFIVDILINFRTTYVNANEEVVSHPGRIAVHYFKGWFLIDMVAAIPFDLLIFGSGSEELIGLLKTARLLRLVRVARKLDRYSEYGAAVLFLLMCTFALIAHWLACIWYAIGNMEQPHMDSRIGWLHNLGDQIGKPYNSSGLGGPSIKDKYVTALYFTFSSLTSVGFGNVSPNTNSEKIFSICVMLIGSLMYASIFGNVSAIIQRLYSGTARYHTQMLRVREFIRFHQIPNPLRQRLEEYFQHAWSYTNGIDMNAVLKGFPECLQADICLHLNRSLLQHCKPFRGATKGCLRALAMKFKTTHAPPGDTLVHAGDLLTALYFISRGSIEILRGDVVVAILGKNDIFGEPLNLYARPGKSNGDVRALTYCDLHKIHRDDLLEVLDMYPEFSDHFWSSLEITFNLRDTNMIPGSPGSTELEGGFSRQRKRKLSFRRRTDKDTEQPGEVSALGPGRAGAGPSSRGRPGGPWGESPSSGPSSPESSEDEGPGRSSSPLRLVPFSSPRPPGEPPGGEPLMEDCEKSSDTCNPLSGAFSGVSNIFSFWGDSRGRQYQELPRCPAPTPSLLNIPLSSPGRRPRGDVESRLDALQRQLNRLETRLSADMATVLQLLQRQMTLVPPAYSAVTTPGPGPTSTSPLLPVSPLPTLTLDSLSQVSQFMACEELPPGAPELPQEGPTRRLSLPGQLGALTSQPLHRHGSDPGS

| SMILES | hERG current change (%, negative = inhibition) at 1uM |
| --- | --- |
| CCOC(=O)N1CCN(C(c2ccccc2)c2sc3nc(C)nn3c2O)CC1 (stereo not shown) | 4.76% |
| CCOC(=O)c1sc(N(Cc2ccccc2)C(=O)COC(=O)c2ccc(O)cc2)nc1C | 18.6% |
| CC(C)NC(=O)COC(=O)/C=C/c1ccco1 | 13.2% |
| CCO[C@H]1OC(C(=O)NCc2nc3ccccc3[nH]2)=C[C@@H](c2cn(C(C)=O)c3ccccc23)[C@@H]1CCCO | -23.9% |
| CC(=O)Nc1ccc(NC(=O)Cn2cnc3c(cnn3C(C)(C)C)c2=O)cc1 | 13.8% |
| COc1cc(/C=C(\C#N)C(N)=O)ccc1OS(=O)(=O)c1ccc(C)cc1 | 12.8% |
| COCCOc1nc2c(c(=O)n(C)c(=O)n2C)n1Cc1cccc(OC)c1 | 11.7% |
| O=C(c1ccccc1)c1ccccc1N=Cc1c(O)[nH]c(=O)[nH]c1=O | 9.44% |
| C/C(CC(=O)N1CCN(C=O)CC1)=N\NC(=O)c1ccc(Br)cc1 | 8.82% |
| O=C(CC(=O)N/N=C/c1ccc(C(=O)O)cc1)NCCc1ccccc1 | 19.1% |
| COc1cc(/C=N/NP(=S)(c2ccccc2)c2ccccc2)ccc1O | 3.62% |
| O=C(c1ccco1)N1N=C(c2ccc(Cl)cc2)CC1c1ccco1 (stereo not shown) | 12.5% |
| COc1ccccc1-c1c(C)nn2c(NCCN3CCCC3)cc(C)nc12 | 12.3% |
| Cc1nn(-c2ccc(F)cc2)c(-n2cccc2)c1C(=O)N1CCN(C(=O)c2ccco2)CC1 | 14.2% |
| Nc1ncc2[nH]cnc2n1 | 15% |
| COc1cc(/C=C/C(=O)O)cc(S(=O)(=O)NCc2ccc3c(c2)OCO3)c1OC | 13.1% |
| O=C(Nc1ccncc1)c1ccc(S(=O)(=O)Nc2ccccc2)cc1 | 11.9% |
| O=C(COc1ccc(F)cc1F)N1CCCCCCC1 | 15.8% |
| Cc1c(C(=O)NCCN2CCCC(O)C2)oc2c(F)cccc12 (stereo not shown) | 10.6% |
| CC(C)[C@H](NC(=O)N1CC(=O)Nc2ccccc21)C(=O)N[C@H](C(=O)O)c1ccccc1 | 7.98% |
| Cc1cccc(C(=O)NCCC(=O)NCc2ccccc2Cl)c1 | -5.83% |
| CCN(Cc1nc(-c2ccc(OC)cc2)no1)C(=O)c1ccc2c(c1)OCO2 | 9.34% |
| Cc1ccc(-n2nc3ccc(N)cc3n2)cc1C | 6.98% |
| Cc1ccc(N2CC(C(=O)Oc3cccc(N4C(=O)CCC4=O)c3)CC2=O)cc1 (stereo not shown) | -8.29% |
| COc1ccc(CNC(=S)Nc2ccccc2-c2ccccc2)cc1 | 5.81% |
| O=C(CN1CCN(C(=O)C2CC2)CC1)Nc1cc(C(F)(F)F)cc(C(F)(F)F)c1 | -5.9% |
| CC(=O)O[C@@]12CO[C@@H]1C[C@H](OC1OCC(O)C(O)C1O)[C@@]1(C)C(=O)[C@H](O)C3=C(C)[C@@H](OC(=O)[C@H](O)[C@@H](NC(=O)c4ccccc4)c4ccccc4)C[C@@](O)([C@@H](OC(=O)c4ccccc4)C12)C3(C)C (stereo partly shown) | 5.93% |
| Cc1cccc(CSc2nnc(CCNC(=O)OC(C)(C)C)o2)c1 | 6.05% |

| SMILES | hERG current change (%, negative = inhibition) at 1uM |
| --- | --- |
| Cc1onc(-c2ccccc2)c1C(=O)N1CCN(S(=O)(=O)c2ccc(OC(F)(F)F)cc2)CC1 | 11.3% |
| CCC(C(=O)NCCC1=CCCCC1)c1ccccc1 (stereo not shown) | 4.51% |
| O=C(NCc1cccs1)c1ccc(S(=O)(=O)N2CCCCC2)cc1 | 8.76% |
| N[C@@H](Cc1ccc(N(CCCl)CCCl)cc1)C(=O)O | 8.67% |
| C=CCOc1nc(N(C)C)nc(N(C)C)n1 | 10.3% |
| COc1ccc(/C=N/NC(=O)CN(CCc2ccccc2)S(=O)(=O)c2ccc(NC(C)=O)cc2)cc1OC | -3.42% |
| CCC1CCCN1Cn1cnc2c([nH]c3ccc(Cl)cc32)c1=O (stereo not shown) | -70.9% |
| O=C(Nc1cc(Cl)ccc1-n1cncn1)c1cncc(Br)c1 | 19.7% |
| COc1ccc(C(C)=O)cc1COC(=O)c1cccc(N(C)C)c1 | 6.78% |
| CN1CCC(N(C)C(=O)c2ccccc2Nc2ccc(SC(F)F)cc2)CC1 | -21.2% |
| CCOC(=O)c1c(NC(=O)CSc2nccn2C)sc(C(=O)NC)c1C | 8.98% |
| CCCC1=C(C(=O)OCC)C(c2ccc(F)cc2)n2ncnc2N1 (stereo not shown) | -14.8% |
| O=C(Cn1nc(Cl)nc1Cl)c1ccc(F)cc1 | 8.98% |
| CC1(C)COC(/C=C/c2ccc([N+](=O)[O-])cc2)=N1 | 0.435% |
| COC(=O)[C@H](Cc1ccccc1)NC(=O)NC(C)CCc1ccccc1 (stereo partly shown) | 2.53% |
| CC(C)(C)NC(=S)NNC(=O)c1cccc(Br)c1 | 11.6% |
| O=C(OCC(=O)c1c[nH]c2ccccc12)c1cc2ccccc2cc1O | 5.94% |
| CSc1ccccc1C(=O)Nc1cccc(C)c1 | 9.27% |
| CC[N+](C)(CC)CCC(c1ccccc1)C1CCCCC1 (stereo not shown) | 11.1% |
| O=C(Nc1ccccc1N(C(=O)c1ccco1)S(=O)(=O)c1cccs1)c1ccco1 | 10% |
| CC(C)C(c1nnnn1Cc1ccc(F)cc1)N1CCN(C2CCCCC2)CC1 (stereo not shown) | -40.8% |
| CCOc1cc(C=O)cc(Br)c1OCC(=O)NCCc1ccccc1 | 0.247% |
| Cc1cc(C(=O)NC2CCCC(C)C2C)c2ccccc2n1 (stereo not shown) | 11.8% |
| NC(=O)c1ccccc1NC(=O)c1ccccc1Cl | 2.08% |
| CCN(CC)CCCCCCCCOC(=O)c1cc(OC)c(OC)c(OC)c1.Cl | 0.589% |
| O=C(c1ccc(=O)[nH]c1)N1CCCc2ccccc21 | 7.56% |
| Cc1c(C(=O)OCC(=O)NCc2ccco2)cccc1[N+](=O)[O-] | -2.37% |
